Source: PubChem BioAssay AID485344 (National Center for Advancing Translational Sciences (NCATS), 2010)
Among all 340,000 compounds or so, about 6,900 (2%) were called active. Cut-off read from the data, not from the text of the source: active = inhibition above about 30%; inactive = below that, where a call was filed. The list shows a part of the results, in another mix than the full data. Where no call is shown, the source filed none.

These compounds were tested against D(2) dopamine receptor (Homo sapiens) (UniProt P14416) (assay: HTS Assay for Allosteric Antagonists of the Human D2 Dopamine Receptor: Primary Screen for Antagonists). Conditions: HEK293 TREx D2 cells, calcium flux, dopamine EC80; at 10 µM; stronger effect = higher value.
Chain of UniProt P14416 (P14416 whole entry, looked up): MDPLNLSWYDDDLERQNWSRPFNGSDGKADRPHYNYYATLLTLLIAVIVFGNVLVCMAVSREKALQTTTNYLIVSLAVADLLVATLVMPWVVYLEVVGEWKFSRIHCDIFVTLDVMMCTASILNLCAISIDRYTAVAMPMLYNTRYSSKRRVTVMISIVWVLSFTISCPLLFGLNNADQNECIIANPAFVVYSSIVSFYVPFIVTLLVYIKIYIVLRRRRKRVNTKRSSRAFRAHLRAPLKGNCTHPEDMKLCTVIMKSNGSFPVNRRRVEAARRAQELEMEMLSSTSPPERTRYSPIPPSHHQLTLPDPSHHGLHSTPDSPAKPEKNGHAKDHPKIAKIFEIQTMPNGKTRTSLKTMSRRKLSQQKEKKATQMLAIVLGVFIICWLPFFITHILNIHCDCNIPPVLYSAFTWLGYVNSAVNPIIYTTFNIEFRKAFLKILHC
Method in brief: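 Overnight-induced (tetracycline, 30 C) HEK293 T-REx cells carrying force-coupled D2 receive a no-wash calcium dye, then compound, then EC80 dopamine at 180 s; signals are read kinetically throughout.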
Note: 0% is about no effect.

Structure (SMILES) | inhibition
CC1CCN(C(=O)c2cc(-c3ccc(Br)cc3)on2)CC1 | -1.28%
CCOc1ccc(CNS(=O)(=O)c2ccc3c(c2)CCCN3C(C)=O)cc1OC | -20.1%
CCc1nnc2c(N3CCN(c4cc(Cl)ccc4C)CC3)nc3ccccc3n12 | 12.5%
CCOC(=O)C1CCCN(C(=O)c2nn(-c3ccc(C)cc3)c(=O)n(C)c2=O)C1 (configuration not stated) | -9.72%
Cc1oc(-c2ccccc2Cl)nc1CSc1nc2ncccc2[nH]1 | 6.01%
CCOC(=O)c1c(C)n(-c2ccccc2)c2ccc(OC(=O)c3cccc(OC)c3OC)cc12 | 17%
O=C(NCc1cccc(Cl)c1)c1ccc2nc(N3CCCCC3)sc2c1 | -3.34%
CCN(CC)C(=O)c1ccc(Nc2nnc(-c3ccc(C)c(S(=O)(=O)NC)c3)c3ccccc23)cc1 | 13.2%
CCc1cccc(N2C(=O)CSC23C(=O)Nc2ccccc23)c1 (configuration not stated) | 2.46%
Cc1c(CC(=O)N[C@@H](C)C(=O)O)c(=O)oc2cc3c(cc12)CCC(C)(C)O3 | active: 36.3%
CCOC(=O)c1c(NC(=O)c2cc(-c3cccc(OC)c3)on2)sc2c1CCCC2 | -1.72%
COc1cccc(CNC(=O)Cc2c(C(=O)O)c(C)cn2C)c1 | 18.6%
COc1ccc(CC(=O)NCC(c2cccs2)S(=O)(=O)c2ccc(C)cc2)cc1 (configuration not stated) | 5.64%
CCc1ccc(NC(=O)Cn2c(=O)n(Cc3ccco3)c(=O)c3oc4ccccc4c32)cc1 | 4.29%
O=C(N/N=C/c1ccc(OC(F)F)cc1)c1ccc(Br)cc1 | active: 31.3%
CC(C)c1ccc(NC(=O)CN2C(=O)COc3ccc(S(=O)(=O)N4CCCCCC4)cc32)cc1 | -8.73%
CCCCOc1ccccc1CC1C(=O)Nc2ccc(Br)cc21 (configuration not stated) | 16.1%
O=C(NCc1cccs1)c1ccc(CSc2nc3cccnc3n2Cc2ccccc2F)cc1 | -14.4%
COc1ccc(NC(=O)C2CCCN(S(=O)(=O)c3ccc(Br)s3)C2)cc1 (configuration not stated) | -11.5%
CC(=O)N1CCc2cc(S(=O)(=O)NC(C(=O)Nc3ccc(C)cc3C)C(C)C)ccc21 (configuration not stated) | -3.47%
CSc1cccc(Nc2cc(C(=O)NCCCN(C)c3ccccc3)c3ccccc3n2)c1 | -19.6%
CCOC(=O)c1c(-c2ccc(C)cc2)csc1NC(=O)c1cc(=O)c2ccc(C)cc2o1 | 7.31%
COc1ccccc1N1CCN(CC(=O)Nc2ccc(CN3CCCCC3)cc2)CC1 | active: 39.1%
COc1ccc(/C=C/C(=O)Nc2nc3n(n2)C(c2ccc(F)cc2)C=C(c2ccccc2)N3)cc1 (configuration not stated) | 11.8%
COc1ccc(NC(=O)Cn2c(=O)n(Cc3nc(-c4ccccc4)no3)c(=O)c3ccccc32)cc1Cl | 6.4%

Structure (SMILES) | inhibition
Cc1ccc2c(c1)C1CN(C)CCC1N2Sc1ccccc1[N+](=O)[O-] (configuration not stated) | active: 43.1%
CCc1cccc(-n2c(=O)c3cccnc3n2CC(=O)Nc2ccc(F)c(C)c2)c1 | -6.39%
CC(C)c1ccc(Nc2cc(C(=O)NC3CCCCC3)c3ccccc3n2)cc1 | 11.7%
CCc1ccc2occ(CC(=O)Nc3ccccc3C(F)(F)F)c2c1 | 13.4%
O=C(NCCn1ccc2ccccc21)c1ccc(Cl)cc1 | 22.1%
COc1ccccc1NC(=O)CSc1nc(-c2ccc(C(C)(C)C)cc2)c(C#N)c(=O)[nH]1 | -12.7%
CCOc1ccccc1-n1nnc(-c2nsc(NC(=O)c3ccc(C)cc3)n2)c1C | 10.8%
CCOc1ccc(C(=O)c2oc3ccccc3c2NC(=O)Cc2coc3ccc(CC)cc23)cc1 | -4.32%
Cc1cccc(NC(=O)N2CCC3(CC2)Oc2ccccc2C(=O)N3Cc2ccccc2F)c1C | 1.48%
CCc1ccc(CNC(=O)c2c(C)oc3ncnc(N4CCOCC4)c23)cc1 | -7.45%
COc1cc2ccccc2cc1C(=O)Nc1ccc2oc(-c3ccc(F)cc3Cl)nc2c1 | -1.31%
COc1cccc(C(=O)Nc2c(C(=O)N3CCN(c4ccc(F)cc4)CC3)oc3ccccc23)c1 | 3.09%
CN(C)CCCN1c2ccccc2CCc2ccccc21 | active: 60.4%
CCOc1ccc(NC(=O)C2CCC(CNS(=O)(=O)c3ccc(Br)s3)CC2)cc1 (configuration not stated) | 10.2%
CC1=C(c2ccc(C)c(C)c2)S(=O)(=O)N=C1N1CCC(C(=O)N2CCC(C)CC2)CC1 | 15.9%
Cc1ccccc1OCc1ccc(-c2nc(C#N)c(NCc3cccnc3)o2)o1 | -0.995%
CCOc1cc(/C=C(\C#N)C(=O)NCC2CCCO2)ccc1O (configuration not stated) | -5.92%
CCc1ccc(C(=O)c2cn(CC(=O)Nc3ccc4c(c3)OCO4)c3ccc(OC)cc3c2=O)cc1 | 5.77%
Cn1c(C(=O)Nc2cccc(C(F)(F)F)c2)cc2c(=O)n3ccccc3nc21 | -17%
Cc1ccc(N2CC(NC(=O)c3cccs3)CC2=O)cc1C (configuration not stated) | 3.43%
Cc1cccc(NC(=O)c2ccc(-n3cnc4cccnc43)cc2)c1C | 8.64%
COc1cc(NC(=O)c2cccc3c2C(=O)N(C2CCCCC2)C3)cc(OC)c1OC | -3.65%
Fc1ccc([C@@H]2CCNC[C@H]2COc2ccc3c(c2)OCO3)cc1 | active: 40.7%
Oc1ccccc1-c1nc(/C=C/c2ccccc2Cl)nn1-c1ccccc1 | 7.24%
CNc1ncnc2c1cnn2-c1ccc(C)c(C)c1 | 16.3%

Structure (SMILES) | inhibition
Cc1ccccc1CNC(=O)CCCn1c(=O)c2cccn2c2cccnc21 | 1.5%
CCOC(=O)c1c(-c2ccc(OC)cc2)oc2ccc(OCc3ccccc3C)cc12 | -12.5%
CCN(CC)CCNC(=O)C1CCN(c2nn3cc(-c4ccc(F)cc4)nc3s2)CC1 | -11.4%
Cc1cccn2c(=O)c(C(=O)NCc3ccc(F)cc3)c(O)nc12 | 12.4%
CCOC(=O)c1c(C)[nH]c(C)c1S(=O)(=O)N1CCCC(C(=O)NCc2cccc(C)c2)C1 (configuration not stated) | -6.62%
O=c1cc(-c2ccccc2)nc(SCc2nc(-c3ccccc3Cl)no2)[nH]1 | 8.46%
CCOc1cc(C(=O)Nc2cc3c(cc2N2CCOCC2)n(C)c(=O)n3C)cc(OCC)c1OCC | -4.6%
Cc1ccc(CSc2nc3ccccc3c(=O)n2C)cc1 | active: 33.6%
COc1ccc(C2Nc3ccccc3-c3cc(C)nn32)cc1OC (configuration not stated) | 18.9%
COc1ccc(CNC(=O)CCCN2C(=O)CSc3c2c(C)nn3-c2ccccc2)cc1 | -15.9%
COC(=O)c1cc2sc(C)cc2n1Cc1cccc(OC)c1 | 8.3%
COc1ccc(Cl)cc1NC(=O)CN(C)C(=O)c1ccc(OCc2ccccc2)c(OC)c1 | active: 36.9%
O=S(=O)(c1ccc(-c2csc(-c3cccnc3)n2)cc1)N1CCCCC1 | active: 36.7%
Cc1ccc(Cn2c(C(=O)NCc3ccccc3Cl)cc3sccc32)cc1 | -15.9%
CCC1=C(c2ccc(C)cc2)S(=O)(=O)N=C1N1CCC(C(=O)Nc2ccccc2F)CC1 | 6.42%
Cc1nc2sccn2c(=O)c1S(=O)(=O)Nc1ccc(N2CCOCC2)c(Cl)c1 | 5.44%
CSCCC(NC(=O)c1ccc(Cl)cc1)C(=O)OCC(C)=O (configuration not stated) | active: 32.1%
COC(=O)c1c(SCC(=O)Nc2cc(OC)cc(OC)c2)[nH]c2ccc(C)cc2c1=O | -4.46%
O=C(CCC(=O)N1CC2CCCN2c2ccccc21)NCc1ccc(Cl)cc1 (configuration not stated) | 13.3%
CCC1CCC(C(=O)NC(C(=O)Nc2cccc(OC)c2)C(C)C)CC1 (configuration not stated) | -6.44%
Cc1cccc(NC(=O)CSc2nnc3[nH]c(=O)cc(-c4ccccc4)n23)c1C | -12.9%
CCOc1ccc(CNCc2c(C(=O)O)c(C)n(Cc3cccc(OC)c3)c2C)cc1OC | 8.39%
Cc1nc2nc(CNC(=O)OC(C)(C)C)nn2c(C)c1CCC(=O)NCc1ccc(F)cc1 | -6.5%
CCCOc1cccc(C(=O)Nc2cccc3cccnc23)c1 | -0.0078%
CCN(C(=O)c1nn(-c2ccc(OC)c(Cl)c2)c(=O)c2c1c1ccccc1n2C)c1cccc(C(F)(F)F)c1 | -19.4%

Structure (SMILES) | inhibition
O=C(CN1C(=O)COc2ccc(Cl)cc21)Nc1ccc(F)cc1 | -22.8%
COc1ccc(-c2nc3ccc(NS(=O)(=O)c4ccc(C)cc4)cc3o2)cc1 | 0.0338%
O=C(OCc1cc(=O)n2nc(-c3cccs3)sc2n1)c1ccc(Cl)cc1 | 9.38%
COc1cccc(CNC(=O)c2cc3c(s2)-c2ccccc2OC3)c1 | -6.75%
COc1ccc(-n2c(=O)c3c4c(sc3n(Cc3ccc(F)cc3)c2=O)CCCC4)c(OC)c1 | 4.49%
Cc1nnc(SCc2cc(=O)oc3cc(O)ccc23)n1Cc1ccccc1 | active: 30.3%
COc1ccccc1NC(=O)C1=C(C)Nc2ncnn2C1c1ccccc1C(=O)O (configuration not stated) | 7.41%
COc1ccc(NC(=O)c2cc(C3CC3)nc3c2c(C)nn3-c2ccccc2)cc1 | 0.49%
Cc1ccc(OCC(=O)Nc2nnc(SCc3cc(=O)c4ccccc4[nH]3)s2)cc1 | -1.23%
CCOc1ccccc1C(=O)Nc1ccc2nc(N(CC)CC)cc(C)c2c1 | -2.64%
CCOc1ccc(CNS(=O)(=O)c2cc3c(cc2C)NC(=O)CO3)cc1OC | -2.76%
Cc1cc(N2CCCCC2)nc2ccc(NC(=O)c3cccc(Cl)c3)cc12 | -27.7%
CCOC(=O)c1c(S(=O)(=O)N2CCCC(C(=O)Nc3cccc(Cl)c3)C2)c(C)n(C)c1C (configuration not stated) | 12.9%
Cc1ccc(-c2nnc(N3CCN(C(=O)CSc4ncn[nH]4)CC3)c3ccccc23)cc1 | active: 46.6%
COc1ccccc1NC(=O)C(=O)NCCc1csc(-c2cccc(F)c2)n1 | 0.545%
CCCCN(CC)CCCNC(=O)CCN1N=C(c2ccc(OC)cc2)CCC1=O | -9.8%
CCn1ccc2cc(S(=O)(=O)N3CCCN(C(=O)Nc4cccc(Cl)c4)CC3)ccc21 | 20.1%
Cc1ccc(NC(=O)NCCc2c(C)nn(C)c2C)cc1Cl | -0.665%
CCOc1ccc(NC(=O)CSc2nnc(C3CC3)n2C2CC2)cc1 | active: 42.8%
COc1ccc(N(C)C(=O)c2cn(C3CCCCC3)c(=O)c3c2c2ccccc2n3C)cc1 | 16.1%
COc1ccc(C2=NN(CC(=O)NCCc3ccc(OC)c(OC)c3)C(=O)CC2)cc1 | -6.52%
CCOc1ccc(C(=O)N2CCC(c3nc4ccccc4o3)CC2)cc1 | -4.2%
